Source: the supplement of paper PMC11417369
The list shows a part of the results.

These sequences were tested on PfSIP2 AP2 domain 1 (GST-tagged) (assay: gcPBM binding intensity (ln(normalized median fluorescence intensity)); higher = stronger DNA binding).
Outline: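 The binding buffer was 1× PBS containing 1% milk, 0.2 mg/ml BSA, 0.5% salmon testes DNA and 0.03% Triton X-100. In it, GST-tagged P. falciparum DNA-binding domains expressed in E. coli were applied for 1 h to an Agilent 4 × 180k array of primer-extended double-stranded 36-bp intergenic genomic probes plus negative controls. Binding intensity, read with Alexa488 anti-GST antibody and a 488 nm scan, is the highest Masliner-normalised natural-log median intensity across replicate spots of either probe orientation.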

Sequence	gcPBM binding intensity (ln)
GAAAAAAGAAATTAAACATGCATCTGCAAATTTAAA [TGCATGCA_site974]	6.58
AATAGTAAAAGATATACACACACCAAAAAATATAAT [CACACA_site5293]	7.15
ACATAATAAAAATAAATTCATAAGTAAATAAATAAA [TGCATGCA_negctrl_site186]	6.98
TGCTACATTTTATGTACACACATATACAGATATATA [CACACA_site4646]	7.06
TGAATAAATCAAAGCACACATACACCCACATATATA [CACACA_site286]	7.01
CTAAAAAATAGTAAAAGTACATAAATAATTTTGCTT [XGTACX_site8919]	6.78
TTACACATGTTTAACTGTACACATAATAGCAATATT [XGTACX_site8545]	7.42
ACAATTATTTTGTTCTTTAATGGTAGGTTCTATGTC [CACACA_negctrl_site1419]	7.04
CATAAATTACTTTTTACACACTAAAATAAAATACAA [CACACA_site1135]	6.94
AATACACGCAGACACACACACACACGCACATATATA [CACACA_site6447]	7.36
AATGGAGTTTATAAGTATAAACGAGGGATACCTAAA [XGTACX_negctrl_site483]	6.76
AATATAAATAATAGTAGTACATATATATCTCAGAAA [XGTACX_site4055]	7.01
TAAATAAATTTATACACACACACACCCATATATATA [CACACA_site849]	7.48
AAAAAATCAAAACACACACACACACTAGAAAAAAAA [CACACA_site4909]	7
TTATGTTGTAAATGCACACATACATATACGCAGTTT [CACACA_site3015]	7.21
TATATTATATTTTTATGTACATATATGTTTTTTTTT [XGTACX_site8239]	6.97
AATAAAAATATATCCACACACATATATATATCTGTA [CACACA_site4481]	6.76
ATTTTATCAAGAGGAAGTACATTACCCCATGAAAAA [XGTACX_site8295]	7
TATATATATATATGATGTACATGAAAATTTCCAAAA [XGTACX_site5472]	9.4
TATATTTTTTAATTCACACAAAAATGAAAAATATTT [CACACA_site6001]	6.9
ATATCTGAAGTGTAAAGTACATATATATATTCATAT [XGTACX_site4612]	6.94
CAATTTTACTCATAAACACACATATAGATGTTATTA [CACACA_site7474]	6.92
TATATATATTATAATACATGCGGTGATGAAAGTTAT [TGCATGCA_site924]	7.49

Sequence	gcPBM binding intensity (ln)
TATAAATATAGACACACACACACCAAAGCGTAGCGC [CACACA_site6179]	6.65
TTTTTTTATATAGACACAAAAGAAAATTACATATAC [CACACA_negctrl_site235]	7.3
TATAATATATATATATTTATATATATCTTCCTAATC [GTGCAC_negctrl_site682]	6.94
AAAAAAAAAAAAAAAACACACAAGGATCATATATAT [CACACA_site3812]	7.56
AATATTTATTTTATATGTACATAATTTATTTTTAAT [XGTACX_site776]	6.91
GATTTGTCTTACAGTGGTACACTTATATATATGTGA [XGTACX_site2899]	7.13
TATGAAGTACACAATACACACTAATTATATATAAAT [CACACA_site5444]	6.91
TTTTTAAAAAAACATACACACAAAAAAAAAAAAAAA [CACACA_site3935]	6.89
AAATAAAAATAAAATAAAATAAAATTAAATGGGAAT [GTGCAC_negctrl_site349]	6.87
GTTTTATATTATATATGTACATATCCATGAGATATA [XGTACX_site3328]	7.23
TTTAACTTTTATATAACACACATATTGTAATTATGT [CACACA_site6486]	7.05
TGTAAACATAAGATATGTACTTATATCATATTATAA [XGTACX_site6883]	7.01
ATGACAATTCAAAATTGTACATAAAAAAAAAAAAAA [XGTACX_site7560]	7.11
AAAAAACATTTTCGAGTGCATGTTTTGCTTTATTTC	7.56
AATAATTTGGTCTTATCAAAAATTAAAAATAAATAA [XGTACX_negctrl_site430]	6.92
TTAAATGTTAAAAGGGTGCTATTATATAAATGAAAA [GTGCAC_site9882]	9.06
TTCATATGTTTTAACACACACGCATATATTATATAT [CACACA_site2007]	7.16
AAAAAAATTTGGCATACACACACACCCCCACCCACA [CACACA_site8094]	8.37
ACCATATGTACATTTTTTTTTTTTTTTTTTTTTTTT [CACACA_negctrl_site1188]	8.51
ATATATATATAATGTAGTACTATTTAATAATAAGCC [XGTACX_site1263]	8.88
AAAAAAAAAAAAAAAGCACACACCAATGAGCAGCTT [CACACA_site1845]	7.62
CACACCCACAGACACACACACACATATATAATATAT [CACACA_site594]	7.27
TATAATCATATACACGCATGTATAAAATTTAATACT [TGCATGCA_site700]	7.06

Sequence	gcPBM binding intensity (ln)
ATATGTTACAAAGATTGTACTTATTAAGGAGCGACT [XGTACX_site5094]	7.16
TAATATATGTATTATGCATGTGAATAAGCACTTGAT [TGCATGCA_site848]	7.64
ACATTCAAGCGTAATTGTACATACATATATATATAT [XGTACX_site8876]	9.1
ATGTATATAAATAGTAGTACATTATTTCACACTGTA [XGTACX_site2061]	7.11
TATTGTATCCTTAATGCATGCACCAAATAAAAAAAG [TGCATGCA_site541]	11.1
ATATATCATCATGTATGTACACACATACATATATTA [XGTACX_site2814]	7.18
TATGCTTTTACAATGTGTACTTATATTTTTCACAGG [XGTACX_site6201]	7.37
TAATTTTCAATAATTTGTACATAATTTTTATAAATT [XGTACX_site8133]	6.84
TATATAAATTAACCAGTGCATTATTTGGAAATTATT	8.33
AACCATAAAAAGTGTACACATATAAAAAATATGGAA [CACACA_site4199]	7.39
TAAAAAAATTTTACAAGTACAAAAAAATGTAATAAA [XGTACX_site4829]	7.05
ATATATATAGATCGAAGTACAGATAGAATGAAAATA [XGTACX_site2695]	7.1
ACAAGAGAAAAAAATACACACAAGATAAAAATGTAT [CACACA_site607]	7
TAATAATAATTAAATTGTACATATAATATAATATAA [XGTACX_site8554]	7.15
ATATTATCATATTCGAGTACACGAAGTATTATTGCA [XGTACX_site6765]	7.07
AATAAAGTAATAACTACACACATTTATAAAAAAGTA [CACACA_site3753]	6.89
AACATATTGGATTTAGTGCACATATATATCATAATA	10.3
AAAAATTACCCTTGTGTACACATATATTATCTGTAT [CACACA_site4513]	7.19
TATAAGCTTTCAATGTGTACATATTATTTTATTATT [XGTACX_site3988]	7.14
TCTTATAAACATGTATATATTAAAAAAAAAAAAAAA [TGCATGCA_negctrl_site86]	7.09
TAAAAATTACTATATGAACACACATGATTAGATATA [CACACA_site9012]	6.9
AGGTGATTAATATATACACACATACATATATATATA [CACACA_site8913]	8.9
TAATTTAATAATTAGACACACATGTCTAAAATAAAA [CACACA_site2527]	6.7

Sequence	gcPBM binding intensity (ln)
AAAAGAAATTTGGGCACATGCGAATTTATAATTTAT [TGCATGCA_site960]	6.68
TAAAGTATTACAACCACACACACACCGATATATTAT [CACACA_site9382]	6.97
TATATATATATATATACATGCATATTTTTTATTTTT [TGCATGCA_site464]	9.67
TTTTTTATATATATTTGTACATATTGCATGTTCCCT [XGTACX_site7143]	6.91
TATATTTATCTGATAACACACATAAATTAGACATTT [CACACA_site6887]	7.01
TGTCTTATATATATTACACACTATATGAAAAAATAT [CACACA_site1487]	7.07
AATATGGTTATATATATATATATATATATATATATT [GTGCAC_negctrl_site566]	7.95
CAACATTTATATTTTACACACATCATTTAAGCGCTT [CACACA_site992]	6.94
ATTGTTTTATATAGAACACACATAAAAATCTATATG [CACACA_site6681]	6.85
TTATTATATAAAATAAATAACAAAAAAAATAAAATA [GTGCAC_negctrl_site548]	6.92
CCTATCCATACATATACACACATATCTATTTATATA [CACACA_site1669]	7.15
TTTGAAATAAATAATGCACACTCTACATATATACGT [CACACA_site2244]	7.93
AAATAAAATACAAGTTGTACTATAAGCTTTTTATAT [XGTACX_site8021]	6.9
AAAAAAAAAAGACACACACACATATTTATTTATATA [CACACA_site6484]	6.96
AATATATAAGTGTTGTGTACTAAAGTATTTTCCTAT [XGTACX_site1622]	7.02
CATATACAGAAACACACACACACATAAATAAATATA [CACACA_site1343]	7.2
TTTAATTAAATATGTATATATATTCATGTATGTATA [GTGCAC_negctrl_site14]	7.16
AGTAGATATAAAAGGAGTACACATATATATATAAAT [XGTACX_site4375]	7.06
TGTTTTTGTGATCATATGAAAAAATTACCTACAAGG [CACACA_negctrl_site279]	7.2
ATAGTATCTGGTAGCTGTACGAGTCGTATAGTGCAG [XGTACX_site2542]	8.25
